In the supplement of paper PMC3724861:
Some of the results follow.

tested on: T1, Caupolican (Caup) homeodomain DNA-binding domain; assay: PBM E-score (8-mer, recovered from the published 9-mer minima) (E-score (dimensionless, -0.5 to 0.5)); Drosophila protein; higher = stronger relative binding preference, active = 0.31 or more
T1 sequence: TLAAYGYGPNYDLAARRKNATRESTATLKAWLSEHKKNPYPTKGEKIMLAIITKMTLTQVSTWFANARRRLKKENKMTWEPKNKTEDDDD
Procedure, shortened: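 An enrichment score, with higher meaning stronger, expresses relative binding preference for each short DNA word. The protein used was Caup's homeodomain DNA-binding domain (residues 214-303), produced by in vitro transcription and translation and tested at 100 nM on custom-designed protein binding microarrays. The 8-mer values were recovered from published 9-mer scores, each equal to the lower of its two constituent 8-mer scores.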

| Sequence | PBM E-score |
| --- | --- |
| CGACGGGC | inactive: -0.184 |
| CATTCGCG | inactive: -0.043 |
| AATCGGGC | inactive: -0.00822 |
| ACCTTAAT | ≥ 0.0103 |
| CAATTCAA | inactive: 0.101 |
| CAAGCATG | inactive: 0.151 |
| ATGACTCG | inactive: 0.0179 |
| ACACGAGC | inactive: 0.172 |
| ATTTAAAT | inactive: 0.0982 |
| GGATTGCC | inactive: -0.17 |
| AGATAAAG | inactive: 0.00787 |
| ACAATCCA | ≥ 0.156 |
| AACTTAGC | inactive: -0.0396 |
| CAGCTGCC | inactive: -0.215 |
| AGTGTTTA | inactive: 0.176 |
| CCCTTTGC | inactive: -0.0352 |
| ATTTCGGC | inactive: -0.0153 |
| ATTGGACG | inactive: -0.0389 |
| GTATATAA | inactive: 0.238 |
| AGAGAAAA | inactive: -0.0236 |
| ACTTTGCC | inactive: -0.0656 |
| AGTGACGG | inactive: -0.076 |
| CACTACGG | inactive: -0.0927 |
| ACGACGGC | inactive: -0.0299 |
| ACATATAT | active: 0.343 |

| Sequence | PBM E-score |
| --- | --- |
| TCCGATCA | inactive: 0.0958 |
| GTCAGTGA | inactive: 0.022 |
| AATTGAGT | inactive: 0.131 |
| CGGTGCCC | inactive: -0.222 |
| CTGTAACA | inactive: 0.289 |
| AAAAAAGT | inactive: 0.0511 |
| AAGGTCAT | inactive: -0.00089 |
| CCACATCA | inactive: 0.00518 |
| ACTCTGTG | inactive: 0.0887 |
| ACCCCTGA | inactive: -0.0489 |
| AACCCCGG | inactive: -0.172 |
| ATGGATTC | inactive: 0.0469 |
| CCGAGGCG | inactive: -0.26 |
| TCACGGCA | inactive: -0.0212 |
| ACGTAATC | inactive: 0.155 |
| CTTCCGTA | inactive: -0.0405 |
| ACTATCGG | inactive: -0.056 |
| CAATGTCA | inactive: 0.293 |
| ACACACGT | inactive: 0.254 |
| AGCAAAAA | inactive: 0.0293 |
| TGGACTAA | inactive: 0.0168 |
| AGTCCTAA | inactive: 0.024 |
| TAACACGA | active: 0.323 |
| ACAGTCGG | inactive: -0.0363 |
| CTTAGTTA | inactive: 0.075 |

| Sequence | PBM E-score |
| --- | --- |
| GGATGACA | inactive: 0.191 |
| ATCCAAGG | inactive: -0.117 |
| AACTCCAG | inactive: -0.161 |
| GGCTTAGA | inactive: -0.112 |
| CTGCTCAA | inactive: -0.0253 |
| ACTGTGAC | inactive: 0.106 |
| GGCAAGCA | inactive: -0.119 |
| AACCATAG | inactive: -0.0441 |
| CATTCCAC | inactive: -0.0122 |
| CCGCGATC | inactive: -0.125 |
| CTGGGACC | inactive: -0.164 |
| GCGGAAGC | inactive: -0.26 |
| GTGATAGA | inactive: 0.0228 |
| GCAATGAA | inactive: 0.0997 |
| ACTTCACT | ≥ 0.0481 |
| AGTTGGCA | inactive: -0.00361 |
| ATTTAAAG | inactive: 0.00458 |
| AATAAGGA | inactive: 0.0417 |
| ATTTTAGC | inactive: 0.00876 |
| GGATTTCA | inactive: 0.0363 |
| ATCTGGAC | inactive: -0.0495 |
| AGGTCAGG | inactive: -0.165 |
| GCGGCCCC | inactive: -0.34 |
| TGTTTAAA | inactive: 0.241 |
| CGCGTGTC | inactive: 0.201 |

| Sequence | PBM E-score |
| --- | --- |
| TATGGGCA | inactive: -0.0516 |
| ACCTGGTA | inactive: 0.104 |
| ATCATTAG | inactive: 0.119 |
| GAACAAGC | inactive: 0.302 |
| ATCATACA | inactive: 0.302 |
| GAAAAGCC | inactive: -0.165 |
| ACAGCTAA | inactive: 0.141 |
| ATTAGGTG | inactive: 0.136 |
| GCGGAAGA | inactive: -0.111 |
| CGCTCATC | inactive: -0.0826 |
| GCACGCTA | inactive: -0.128 |
| CTTGGTCA | inactive: -0.0643 |
| AGCAGCTC | inactive: -0.171 |
| ATGGGTCC | inactive: -0.0747 |
| AGGGCTAC | inactive: -0.0721 |
| ATATCCCC | inactive: -0.00098 |
| GGGTCACC | inactive: -0.305 |
| AGCGGGAG | inactive: -0.266 |
| CAGATCGC | inactive: -0.0937 |
| GCCGGCTA | inactive: -0.225 |
| CGGTCACG | inactive: -0.176 |
| ACGGTCCC | inactive: -0.197 |
| AGCAAACC | inactive: 0.0858 |
| GCACTGCA | inactive: -0.14 |
| GACGCTAA | inactive: -0.127 |

| Sequence | PBM E-score |
| --- | --- |
| ATGGGATC | inactive: 0.032 |
| CCCCACCA | inactive: -0.245 |
| AGAGTCGA | inactive: -0.0788 |
| CTGACGAA | inactive: 0.0306 |
| CGTCCTCC | inactive: -0.156 |
| AGCTAAAC | inactive: 0.0265 |
| CGTTATGA | inactive: -0.0221 |
| AAAACTGT | inactive: 0.128 |
| AAACTTAC | inactive: 0.201 |
| ATCTAGTC | inactive: 0.05 |
| CTCGATCA | inactive: -0.0459 |
| ACGCGAAA | inactive: -0.0228 |
| GACTCACA | inactive: 0.082 |
| CTGAACAG | inactive: 0.058 |
| AGTCACTC | inactive: -0.0168 |
| CGCGCTGC | inactive: -0.153 |
| CCCGCTGC | inactive: -0.202 |
| GCGCTGCA | inactive: -0.156 |
| GTCCCGCA | inactive: -0.157 |
| CTGGAACA | inactive: 0.199 |
| CAGATAAG | inactive: 0.0966 |
| GGTATTCA | inactive: 0.075 |
| AGCACTCC | inactive: -0.0245 |
| CACCTGTC | inactive: 0.132 |
| ACAGGGCA | inactive: 0.069 |

| Sequence | PBM E-score |
| --- | --- |
| GTCTTATA | inactive: 0.151 |
| AAGGCCCC | inactive: -0.268 |
| GTCGGGGA | inactive: -0.0318 |
| GACTCTGA | inactive: 0.0102 |
| TGGATGAA | inactive: 0.0632 |
| ACTTACGC | inactive: 0.0663 |
| CGCCCCCG | inactive: -0.299 |
| GCGCACGC | inactive: -0.251 |
| ATTCGAAC | inactive: 0.16 |
| GCAGGCGC | inactive: -0.288 |
| CAATGGTA | inactive: 0.112 |
| CTGGCTAA | inactive: -0.0751 |
| AGGGAGCC | inactive: -0.254 |
| ACAATCAC | inactive: 0.133 |
| CGGGGACG | inactive: -0.139 |
| AGTGTAAC | inactive: 0.2 |
| CACGCACA | inactive: 0.0915 |
| GCCACACA | inactive: -0.0551 |
| GAAGAATA | inactive: 0.0843 |
| ACTGTGTC | inactive: 0.229 |
| AATTAGGG | inactive: 0.0221 |
| ACGAACAA | inactive: 0.298 |
| AGATAGCT | inactive: 0.0303 |
| CCGAGGAG | inactive: -0.115 |
| CGGAGTAG | inactive: -0.0319 |

| Sequence | PBM E-score |
| --- | --- |
| GACAATTA | inactive: 0.168 |
| ACGAGGCG | inactive: -0.0824 |
| AAGAATAC | inactive: 0.148 |
| ATACTCGG | inactive: 0.00654 |
| AGTTGAAC | inactive: 0.00101 |
| TGCTCACA | inactive: 0.0534 |
| AGTGTTTC | inactive: 0.0785 |
| ATAACGTA | ≥ 0.208 |
| ATGCTGTG | inactive: 0.136 |
| GCGCTCCC | inactive: -0.312 |
| CGCCGGGA | inactive: -0.268 |
| CATGTATA | active: 0.418 |
| TCCTGGCA | ≥ -0.0742 |
| ATGTTTGA | active: 0.327 |
| CACGAACA | inactive: 0.27 |
| CCCCTGGA | inactive: -0.283 |
| CAATAAAG | inactive: 0.0464 |
| GCTTAGAC | inactive: -0.109 |
| CCAAGGCC | inactive: -0.285 |
| ATGAGTGG | inactive: -0.0457 |
| GCGAATCA | inactive: 0.039 |
| TAAGAGCA | inactive: -0.0396 |
| CACTTGAG | inactive: -0.104 |
| GTAAAGGA | inactive: 0.0746 |
| ACCCCCTA | inactive: -0.201 |

| Sequence | PBM E-score |
| --- | --- |
| AGGGACAA | inactive: 0.0424 |
| ACGATCGC | inactive: -0.0712 |
| AGCGAACA | inactive: 0.136 |
| CTACTGGA | inactive: -0.0316 |
| TCCGTGAA | inactive: 0.0438 |
| ATGTCAGA | active: 0.336 |
| AGATATCC | inactive: 0.0875 |
| AAATGATT | inactive: 0.171 |
| GCAGAACA | inactive: 0.174 |
| GTACGAAC | inactive: 0.108 |
| TCCTTGCA | inactive: -0.039 |
| AGCCCCCA | inactive: -0.365 |
| GTTTCGAA | inactive: 0.0513 |
| AGGTCTCG | inactive: -0.0846 |
| GGGCCTTA | inactive: -0.199 |
| GCCGGGCC | inactive: -0.243 |
| ACGAATAA | inactive: 0.146 |
| GCGAGGCC | inactive: -0.21 |
| ACCAACCG | inactive: -0.0503 |
| GACCAGAA | inactive: 0.00802 |
| TTTTAAAA | inactive: 0.00747 |
| AGTGTACA | active: 0.337 |
| AGGGGAGA | inactive: -0.152 |
| CGTAGCAA | inactive: 0.066 |
| CGGTAGGC | inactive: -0.149 |

| Sequence | PBM E-score |
| --- | --- |
| GTGGCTTA | inactive: -0.0913 |
| CTTCCAAC | inactive: -0.0418 |
| GAGGCTTA | inactive: -0.129 |
| CGCAGTCC | inactive: -0.137 |
| CCTCGAGA | inactive: -0.0348 |
| ACCTCACT | ≥ 0.021 |
| ACACGTAG | inactive: 0.271 |
| AAGCTGCT | inactive: 0.00226 |
| TAGACGGA | inactive: -0.0225 |
| GCGGGACC | inactive: -0.187 |
| GAGCTTTA | inactive: -0.143 |
| GCACGCAC | inactive: -0.14 |
| TCACGCGA | inactive: -0.0203 |
| AACGGGAG | inactive: -0.0126 |
| TCTCGGCA | inactive: -0.144 |
| CCCCTTAA | inactive: -0.141 |
| ACACATAA | inactive: 0.291 |
| CACCATGC | inactive: -0.0233 |
| AGCACAAA | inactive: 0.0386 |
| GAGTTTTA | inactive: 0.00246 |
| CAGATGGG | inactive: -0.0895 |
| ACCATCGT | inactive: -0.0669 |
| CAAGACGG | inactive: -0.03 |
